{"source": "the BET-seq Pho4 binding data (Le et al. 2018)", "note": "Some of the results follow. Values were computed here from the reads of four pooled replicates and scatter widely.", "data": [{"molecular_target": "T1, Pho4 (S. cerevisiae) (UniProt P07270)", "T1 sequence": "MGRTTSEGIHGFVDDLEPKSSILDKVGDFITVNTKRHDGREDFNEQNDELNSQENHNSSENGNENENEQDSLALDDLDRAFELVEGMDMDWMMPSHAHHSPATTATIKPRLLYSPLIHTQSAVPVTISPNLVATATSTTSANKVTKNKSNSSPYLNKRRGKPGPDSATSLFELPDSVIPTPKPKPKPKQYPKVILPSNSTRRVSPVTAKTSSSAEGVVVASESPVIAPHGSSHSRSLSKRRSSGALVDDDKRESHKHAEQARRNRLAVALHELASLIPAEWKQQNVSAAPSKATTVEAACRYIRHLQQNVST", "assay": "relative binding free energy (BET-seq); higher = weaker binding", "conditions": "reference: library average", "units": {"relative binding free energy": "kcal/mol"}, "values": [{"sequence": "GTGGACACGTGAGATA", "relative binding free energy": 0.26}, {"sequence": "TATAGCACGTGAGTCT", "relative binding free energy": 0.15}, {"sequence": "TGGAGCACGTGCGTAG", "relative binding free energy": -0.1}, {"sequence": "ATGTTCACGTGGGCTC", "relative binding free energy": 0.17}, {"sequence": "CGTGTCACGTGTTTGG", "relative binding free energy": 0.01}, {"sequence": "GAGGGCACGTGCTGAA", "relative binding free energy": -0.07}, {"sequence": "CCGTTCACGTGGGTAT", "relative binding free energy": 0.14}, {"sequence": "TAAGTCACGTGCGTTT", "relative binding free energy": 0.06}, {"sequence": "TGTATCACGTGGCGAT", "relative binding free energy": 0.12}, {"sequence": "AGGGGCACGTGGTACT", "relative binding free energy": -0.21}, {"sequence": "GGTTGCACGTGCTGCT", "relative binding free energy": -0.03}, {"sequence": "TTGATCACGTGCGAGT", "relative binding free energy": 0.19}, {"sequence": "ATATACACGTGGTTCT", "relative binding free energy": 0.02}, {"sequence": "GTATCCACGTGTATGG", "relative binding free energy": 0.04}, {"sequence": "GTAGGCACGTGCATTG", "relative binding free energy": -0.09}, {"sequence": "GTGTACACGTGTTCGA", "relative binding free energy": 0.08}, {"sequence": "CTTTGCACGTGTGATT", "relative binding free energy": 0.02}, {"sequence": "GTTAGCACGTGTTCGT", "relative binding free energy": -0.15}, {"sequence": "CCTTGCACGTGGGCGT", "relative binding free energy": -0.09}, {"sequence": "GGTGACACGTGACTTG", "relative binding free energy": 0.29}, {"sequence": "GTGTTCACGTGATGAT", "relative binding free energy": 0.36}, {"sequence": "GGTACCACGTGGTAAG", "relative binding free energy": 0.08}, {"sequence": "GGGTACACGTGGAGAG", "relative binding free energy": 0.19}, {"sequence": "TGAGCCACGTGGGTTG", "relative binding free energy": -0.35}, {"sequence": "GGCGTCACGTGGTAAG", "relative binding free energy": 0.08}, {"sequence": "GGTTGCACGTGTTCTC", "relative binding free energy": 0.17}, {"sequence": "TTTGTCACGTGGGTCT", "relative binding free energy": -0.08}, {"sequence": "TTGTGCACGTGTAATT", "relative binding free energy": 0.16}, {"sequence": "CGCGGCACGTGGGTCG", "relative binding free energy": -0.26}, {"sequence": "TGGATCACGTGAGATG", "relative binding free energy": 0.46}, {"sequence": "GGCGTCACGTGGTTGG", "relative binding free energy": 0.06}, {"sequence": "AGCATCACGTGCAGGG", "relative binding free energy": 0.35}, {"sequence": "CTGTGCACGTGATGTA", "relative binding free energy": -0.04}, {"sequence": "GGGGACACGTGCAAGG", "relative binding free energy": 0.13}, {"sequence": "TAGATCACGTGGCTTT", "relative binding free energy": 0.03}, {"sequence": "GGGTACACGTGTATCT", "relative binding free energy": -0.02}, {"sequence": "GTTGGCACGTGTGAGA", "relative binding free energy": 0.12}, {"sequence": "ATGGGCACGTGCTAAG", "relative binding free energy": -0.13}, {"sequence": "CCAAGCACGTGTGGGG", "relative binding free energy": -0.06}, {"sequence": "GCTTTCACGTGTAGTG", "relative binding free energy": 0.35}, {"sequence": "GTTATCACGTGCTCGG", "relative binding free energy": 0.11}, {"sequence": "CTGTTCACGTGAGGCT", "relative binding free energy": 0.34}, {"sequence": "GTTGGCACGTGTAGAG", "relative binding free energy": -0.06}, {"sequence": "CGGTCCACGTGTGTAT", "relative binding free energy": 0.12}, {"sequence": "TGTGACACGTGTTTTC", "relative binding free energy": 0.06}, {"sequence": "GTGGGCACGTGGGGAA", "relative binding free energy": -0.15}, {"sequence": "TCGGTCACGTGTGGAG", "relative binding free energy": 0.06}, {"sequence": "TTTTACACGTGTTGCG", "relative binding free energy": 0.15}, {"sequence": "ACGGTCACGTGTTAGG", "relative binding free energy": 0.16}, {"sequence": "TTTCTCACGTGGGCGG", "relative binding free energy": 0.13}, {"sequence": "CGTAACACGTGTATGT", "relative binding free energy": -0.06}, {"sequence": "TATCGCACGTGATGGT", "relative binding free energy": 0.04}, {"sequence": "TGTCTCACGTGTATGT", "relative binding free energy": 0.23}, {"sequence": "ATTGTCACGTGTTTTA", "relative binding free energy": 0.16}, {"sequence": "GGTGACACGTGTTGAC", "relative binding free energy": 0.22}, {"sequence": "CGTTACACGTGAGTTT", "relative binding free energy": 0.42}, {"sequence": "TGTCGCACGTGTTGAG", "relative binding free energy": -0.02}, {"sequence": "AAGAGCACGTGGGAAT", "relative binding free energy": -0.2}, {"sequence": "TTGCTCACGTGGTGTG", "relative binding free energy": 0.09}, {"sequence": "GTATTCACGTGTTGAA", "relative binding free energy": 0.08}, {"sequence": "TGACGCACGTGAAGGT", "relative binding free energy": 0.17}, {"sequence": "TGGGTCACGTGAGGGC", "relative binding free energy": 0.25}, {"sequence": "GAGGCCACGTGGGTAG", "relative binding free energy": -0.07}, {"sequence": "CCGGACACGTGGGGTG", "relative binding free energy": -0.23}, {"sequence": "GATGCCACGTGTAGGG", "relative binding free energy": 0.09}, {"sequence": "AGCGGCACGTGGTGGC", "relative binding free energy": -0.16}, {"sequence": "ATGTTCACGTGTGGGA", "relative binding free energy": 0.28}, {"sequence": "TTGAACACGTGTTAGG", "relative binding free energy": 0.04}, {"sequence": "TGAACCACGTGGTTGG", "relative binding free energy": -0.2}, {"sequence": "GGGGTCACGTGCAGGC", "relative binding free energy": 0.16}, {"sequence": "GGGGCCACGTGGCTTG", "relative binding free energy": -0.18}, {"sequence": "CATTTCACGTGTGTTT", "relative binding free energy": 0.43}, {"sequence": "TTGAACACGTGGCTTT", "relative binding free energy": -0.06}, {"sequence": "CTAGACACGTGTGGTT", "relative binding free energy": 0.07}, {"sequence": "GGTAGCACGTGGCCGG", "relative binding free energy": -0.03}, {"sequence": "CGTGTCACGTGGGCTC", "relative binding free energy": -0.06}, {"sequence": "TTTTTCACGTGGGAAC", "relative binding free energy": 0.16}, {"sequence": "AGATGCACGTGAGGGC", "relative binding free energy": 0.27}, {"sequence": "GGTAACACGTGTGATA", "relative binding free energy": 0.16}, {"sequence": "CTTGTCACGTGTTGCT", "relative binding free energy": -0.1}, {"sequence": "TGATTCACGTGTAGGT", "relative binding free energy": 0.28}, {"sequence": "TGGCTCACGTGATTTG", "relative binding free energy": 0.56}, {"sequence": "TGAGTCACGTGACTTT", "relative binding free energy": 0.23}, {"sequence": "TAGTACACGTGGATAT", "relative binding free energy": -0.04}, {"sequence": "GTGGGCACGTGTTCAA", "relative binding free energy": 0.05}, {"sequence": "GGTGTCACGTGAAAGC", "relative binding free energy": 0.37}, {"sequence": "AAAGCCACGTGTGGGG", "relative binding free energy": -0.21}, {"sequence": "GGTGACACGTGAGAGA", "relative binding free energy": 0.15}, {"sequence": "ACAGGCACGTGCGAGG", "relative binding free energy": -0.07}, {"sequence": "TGTGTCACGTGTTTTA", "relative binding free energy": 0.08}, {"sequence": "CTGCGCACGTGGTAAG", "relative binding free energy": 0}, {"sequence": "AGCGTCACGTGGAATG", "relative binding free energy": 0.19}, {"sequence": "GGCAGCACGTGCTGGG", "relative binding free energy": -0.21}, {"sequence": "GTAGTCACGTGTAAGT", "relative binding free energy": 0.19}, {"sequence": "ATAGCCACGTGTTGGC", "relative binding free energy": 0.09}, {"sequence": "GTTGCCACGTGTATGA", "relative binding free energy": 0.11}, {"sequence": "TAGGGCACGTGGTTTC", "relative binding free energy": -0.06}, {"sequence": "TGTTGCACGTGGAGGA", "relative binding free energy": 0.05}, {"sequence": "TGGCACACGTGAGGGA", "relative binding free energy": 0.33}, {"sequence": "TTGTTCACGTGGGCTA", "relative binding free energy": 0.05}, {"sequence": "ATGGCCACGTGATGTA", "relative binding free energy": 0.04}, {"sequence": "AGTCTCACGTGTCGGT", "relative binding free energy": 0.14}, {"sequence": "TTTATCACGTGTAGGA", "relative binding free energy": 0.2}, {"sequence": "GTGCTCACGTGATGTG", "relative binding free energy": 0.31}, {"sequence": "TTTATCACGTGTAATA", "relative binding free energy": 0.11}, {"sequence": "TGTATCACGTGCGCTG", "relative binding free energy": -0.02}, {"sequence": "GGAGTCACGTGGGCCG", "relative binding free energy": 0.02}, {"sequence": "AGTGTCACGTGCGGAA", "relative binding free energy": -0.02}, {"sequence": "TTCTGCACGTGTCGTT", "relative binding free energy": 0.01}, {"sequence": "TCGGTCACGTGTATAT", "relative binding free energy": 0.2}, {"sequence": "AGTGGCACGTGGGATG", "relative binding free energy": -0.17}, {"sequence": "TGAAGCACGTGGTTTT", "relative binding free energy": -0.04}, {"sequence": "GGATTCACGTGTGGTC", "relative binding free energy": 0.39}, {"sequence": "TAAGACACGTGAGTTT", "relative binding free energy": 0.31}, {"sequence": "TAGCTCACGTGAGTAT", "relative binding free energy": 0.4}, {"sequence": "GTAATCACGTGTAAAT", "relative binding free energy": 0.44}, {"sequence": "TGGCGCACGTGTCTGT", "relative binding free energy": -0.13}, {"sequence": "CATGGCACGTGAGAGG", "relative binding free energy": 0.06}, {"sequence": "GGAGACACGTGATGTA", "relative binding free energy": 0.22}, {"sequence": "TTGGTCACGTGACAGG", "relative binding free energy": 0.25}, {"sequence": "CTCGGCACGTGGAGGT", "relative binding free energy": -0.2}, {"sequence": "TTGAGCACGTGCGGGT", "relative binding free energy": -0.14}, {"sequence": "GCTTTCACGTGTTTGT", "relative binding free energy": 0.36}, {"sequence": "GGAGGCACGTGGGAAG", "relative binding free energy": -0.02}, {"sequence": "ATCGTCACGTGGGTAG", "relative binding free energy": -0.15}, {"sequence": "GTTGTCACGTGGGGGC", "relative binding free energy": 0.01}, {"sequence": "GTAGTCACGTGCGTAT", "relative binding free energy": 0.08}, {"sequence": "GTGGGCACGTGGCCGA", "relative binding free energy": -0.09}, {"sequence": "CATAGCACGTGGGTTG", "relative binding free energy": -0.41}, {"sequence": "GGCTACACGTGATGGG", "relative binding free energy": 0.32}, {"sequence": "TGAGGCACGTGCCGGG", "relative binding free energy": -0.21}, {"sequence": "CGTTTCACGTGGGTAG", "relative binding free energy": 0.13}, {"sequence": "TGCTCCACGTGGGGGG", "relative binding free energy": -0.14}, {"sequence": "CGGGCCACGTGGGAAG", "relative binding free energy": -0.11}, {"sequence": "TGAACCACGTGGTGTG", "relative binding free energy": -0.09}, {"sequence": "AGGTGCACGTGGTGTC", "relative binding free energy": -0.15}, {"sequence": "TACAGCACGTGTGGTT", "relative binding free energy": 0.01}, {"sequence": "AGTATCACGTGGAGAT", "relative binding free energy": 0.08}, {"sequence": "TTTTGCACGTGGAGTG", "relative binding free energy": -0.01}, {"sequence": "TTGTTCACGTGATATG", "relative binding free energy": 0.28}, {"sequence": "TGCGCCACGTGAGTGT", "relative binding free energy": 0.04}, {"sequence": "TAGTGCACGTGAAGGA", "relative binding free energy": 0.21}, {"sequence": "GTAATCACGTGTAGTA", "relative binding free energy": 0.29}, {"sequence": "CCTGTCACGTGGGGTG", "relative binding free energy": -0.04}, {"sequence": "TGCGTCACGTGGAGGT", "relative binding free energy": -0.01}, {"sequence": "GGATTCACGTGGGACG", "relative binding free energy": 0.34}]}]}
